± gives the standard deviation of the averaged measurements. Some of the results follow.
Each sequence was assayed on PfAP2-G AP2 domain (GST-tagged) (assay: gcPBM binding intensity (ln(normalized median fluorescence intensity)); higher = stronger DNA binding).
Method in brief: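 Binding intensity is the highest Masliner-normalised natural-log median intensity over replicate spots in either probe orientation. To obtain it, GST-tagged P. falciparum DNA-binding domains made in E. coli were incubated for 1 h on an Agilent 4 × 180k array of primer-extended double-stranded 36-bp intergenic genomic probes plus negative controls. Detection used Alexa488 anti-GST antibody with scanning at 488 nm.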

Row | Sequence | gcPBM binding intensity (ln)
1 | ACAAATGGAACTCCTACAAAAAATTTCCATAATATT [XGTACX_negctrl_site132] | 10.1 ± 0.2
2 | TAAACCTATTATACGGGTACTTATTTGATTCTTATA [XGTACX_site5292] | 11 ± 0.66
3 | GTATAAAATATTGATTGTACTTTATTCATTTTTTTT [XGTACX_site2520] | 11.2 ± 0.91
4 | TCATATTCCAAGTGTACACATAAATCCCTAATAACA [CACACA_site5167] | 11.7 ± 0.94
5 | TCATTGTTTAATATGTGTCCTCAAAATTTGTTATAT [XGTACX_site677] | 11.2 ± 0.76
6 | TATATACATACATATACACACATATATATATATATA [CACACA_site401] | 10.1 ± 0.12
7 | TCTTGTTAATATATTAAATATATCTATAAATATATA [XGTACX_negctrl_site486] | 9.815 ± 0.021
8 | CATTTAGTTCATACTATGCACACTACGTATATTTTT [CACACA_site2694] | 10.19 ± 0.042
9 | AATGCACAGCTCTTAGGCAAAAGTGGGTATTTACAC [GTGCAC_negctrl_site579] | 10.4 ± 0.33
10 | TGTATAAAAAACTAATGTACAAATGACAAGATATCT [XGTACX_site4600] | 10.7 ± 0.29
11 | ATTTTTTTTTTTTAATTTGATATTTGCGTTTATATA [CACACA_negctrl_site1305] | 9.665 ± 0.007
12 | ACAATTCATTAGAATTGTACAAAAGGATGAAGCGAA [XGTACX_site5242] | 10.8 ± 0.4
13 | ATTTAATACAAATACACACACAAATATGTACCTATA [CACACA_site7718] | 11.2 ± 0.77
14 | AATATATGATAATTTTTTTTTTTTTTTTTTAAATAT [CACACA_negctrl_site452] | 9.53 ± 0.12
15 | TGTGTTAGCAAAAAAGTGCACAGGGAAAAAAAAATA [GTGCAC_site9397] | 10.6 ± 0.46
16 | ATGATATTATAAAAAAGTACATATGTATATAATTAT [XGTACX_site7652] | 11.4 ± 0.75
17 | AAAAAATGTTAAAAAAGTACTTTCTTTATTTAATAA [XGTACX_site2908] | 11.1 ± 0.65
18 | AACAATTGTTAAAGGTGTACCATATGTATATAAGAA [XGTACX_site5723] | 11.2 ± 0.77
19 | GTATATATGTATATATGTACATATATATAATATATT [XGTACX_site56] | 11.1 ± 0.58
20 | TAAAACATATATACAAGTACACAAAGGATATATATA [XGTACX_site3710] | 11.4 ± 0.95
21 | CAGTGCCAAATTAGCACACACATATATACATGAATT [CACACA_site2814] | 10.1 ± 0.16
22 | TATAGGTATTTATATACACACATATTCTTTTTACAC [CACACA_site6686] | 10.1 ± 0.16

Row | Sequence | gcPBM binding intensity (ln)
23 | AAGCCCATTATTAAATGTACAAAATTTTATAAACTA [XGTACX_site7800] | 10.7 ± 0.45
24 | ATATATATATATATATGTACTTATTACCAATGTTAG [XGTACX_site1896] | 11.2 ± 0.79
25 | TTTTGTTATGGTTTGATGCACTTATATATAAATATT [GTGCAC_site9705] | 10.3 ± 0.19
26 | ATGTAGATAAAACGTGTGCACATGTTTTTTGTTATT | 10.3 ± 0.11
27 | CACAGTGATATAAAAACACACATGAATTATAATTTC [CACACA_site1667] | 9.95 ± 0.16
28 | TTTGGAAAAAAATTATTTAAACGATATGAATTGATG [XGTACX_negctrl_site506] | 9.935 ± 0.064
29 | AAAATTTTACAGAAGGTGCGTATATTTTCCTGCTTA [GTGCAC_site9643] | 10.1 ± 0.13
30 | ATTTAAATACAAAATTGTACTTTTCTATATTTAACA [XGTACX_site6146] | 11.3 ± 0.64
31 | ACCCATTTAACAAAATGTACATTATTATAATTACTT [XGTACX_site7105] | 10.9 ± 0.54
32 | AAATTTTAAATAGTATGTACGTATGAAATATATATG [XGTACX_site7511] | 11.4 ± 0.79
33 | TGAACTTACTTGGACATACACACATATATATATATA [CACACA_site2977] | 10.8 ± 0.53
34 | TATATATATATACCAACACACATACAGATATATATA [CACACA_site5060] | 10.1 ± 0.25
35 | TTTATATACAAAAATGCACACGAAAAGTAATATATA [CACACA_site9387] | 10.28 ± 0.049
36 | TGTAAGTCGTTATAAGCACACACATAAATAAAAATA [CACACA_site8448] | 10.2 ± 0.18
37 | TACAATATTTTGAGACGTACATATATACATTTACAT [XGTACX_site5880] | 11.4 ± 0.95
38 | CTTACCAAAAGACACACACACACAAGATATATAAAT [CACACA_site6964] | 10.2 ± 0.26
39 | AAATTAAAATAAAAATGTACATATAAAGACACAACT [XGTACX_site3132] | 11.1 ± 0.6
40 | ATAAAAAAAAATAGCACACATAAATATATTATATAT [CACACA_site767] | 10 ± 0.014
41 | ACAATATAGATTAAAAGTACAAATAGTAAATTATAT [XGTACX_site3165] | 11.2 ± 0.71
42 | TCTTAAATATATAAATTGAAAAATATAAAAGTAATA [CACACA_negctrl_site1558] | 9.88 ± 0.29
43 | AAAACAATATACTGTAGTACTGATGATATATATATA [XGTACX_site7798] | 11 ± 0.52
44 | AATCATCTCATAAAAATTAATTAGTGTATGTCTTTT [TGCATGCA_negctrl_site416] | 9.68 ± 0.18

Row | Sequence | gcPBM binding intensity (ln)
45 | CTACTTATAAATAGAACACACATAAGTGTATTTGTA [CACACA_site3759] | 10.1 ± 0.11
46 | TAAAATTTAAATTATACACACTTAAGTAACATCATC [CACACA_site4450] | 10.4 ± 0.22
47 | TAATTATGTATGAACTGTACAGGTTATTTTATTTTA [XGTACX_site5204] | 11.1 ± 0.76
48 | AAAAAAAATTTATTTGCATGCAAAAAAAAAAAAAAA [TGCATGCA_site67] | 9.66 ± 0.39
49 | AAAAAATACCTCTATAGTACATATATATAATATTTA [XGTACX_site7222] | 10.7 ± 0.51
50 | AATATAAATAATGTTAAACACACATACCGATATATA [CACACA_site8869] | 9.81 ± 0.2
51 | ATTTATAGAGCTATATGTACATATATATATATTATT [XGTACX_site3704] | 11 ± 0.49
52 | AAAAAACACGGACACACACACATATACATACATACA [CACACA_site5470] | 11.5 ± 0.88
53 | TTCCACCAATATATATGTACTTATAATATATATATA [XGTACX_site8700] | 11.2 ± 0.84
54 | AATTACATATAATACTGTACGCTAATAAGAAAAAAA [XGTACX_site7413] | 11.5 ± 0.75
55 | AAAAGGTGGAAAAATGCATGCAGGCTATTCTATATA [TGCATGCA_site1034] | 9.63 ± 0.15
56 | ATATAAATAAAGAAATATATATATATATATATATAT [GTGCAC_negctrl_site668] | 9.73 ± 0.38
57 | AACGCTTATTAGTTGTTGTATATGTGTTCACATATT [CACACA_negctrl_site379] | 10.1 ± 0.11
58 | ATAAAAGATTTATACATACACACATATTATATTCAC [CACACA_site3714] | 9.98 ± 0.028
59 | TTTTTTTTTTTTTTTTAACACACATATATATATTTT [CACACA_site8585] | 9.63 ± 0.43
60 | ATATATATGTATATAACATGCAACATTTAATAATAA [TGCATGCA_site1018] | 9.925 ± 0.021
61 | TTTTTTTTTTGTTGTTGTACTCTTATATTTTTATAT [XGTACX_site6178] | 11.4 ± 0.79
62 | ATTCTAGTAATATATGTATATTTATATATGTATGTG [XGTACX_negctrl_site419] | 10 ± 0.14
63 | ACACATGTATTTGGTGCATGTTGTTAAAAAAATATT [TGCATGCA_site795] | 10.1 ± 0.18
64 | TCATAGCTAGGATAACGTACAGAAAAGTGAAAAATT [XGTACX_site3322] | 11.2 ± 0.57
65 | TTTTTTTTTTTATGCTCACACATTAATTTTTATACA [CACACA_site4527] | 9.96 ± 0.057
66 | TATGTATGTATGTATGTATGCATGTCTAACACCTAA [TGCATGCA_site360] | 9.98 ± 0.085

Row | Sequence | gcPBM binding intensity (ln)
67 | AAAAAGAAAAAAGAAAGTACAAATATACACATTTTT [XGTACX_site3343] | 10.9 ± 0.54
68 | TTTTTATTATAAGGTCGTACAATTGTAATTATTGTA [XGTACX_site1413] | 11.4 ± 0.83
69 | GATCTATTGAGTGATACATGCAGGAAAATTAAAAAC [TGCATGCA_site729] | 10.11 ± 0.042
70 | ATTGTCAAAACACGCACACACATATACATAATAACA [CACACA_site1742] | 10.4 ± 0.33
71 | ATTATATACATATATATTGTATATACTATACATATG [XGTACX_negctrl_site545] | 9.875 ± 0.021
72 | TAATAAAAAAAGTGCACACACATAATATATATATAT [CACACA_site3340] | 10.7 ± 0.54
73 | TATAAATCAATATGTACACACATATACATGTTGAAT [CACACA_site7460] | 11.3 ± 0.9
74 | CATATAATATATCAATGTACATATATATTTTATAAA [XGTACX_site5901] | 11.1 ± 0.73
75 | TTAGCAACTATTACTACACACATTTTTATATAATTT [CACACA_site1372] | 10.03 ± 0.014
76 | ATATATACCTATAACACACACATATTTATATTTATA [CACACA_site7257] | 9.985 ± 0.049
77 | ATATATATATAAAGGAGTACATACATTAAAAAAAAA [XGTACX_site1095] | 11.7 ± 1
78 | TCTTATTTAAAAATAGCACACATTATATATATATAT [CACACA_site8916] | 10.2 ± 0.52
79 | AAAAAACATACATACACACACATAAATATATATATT [CACACA_site2699] | 10.1 ± 0.16
80 | ACACATACACATTAGGTGCACATAATTCAATATTAC [GTGCAC_site9862] | 10.6 ± 0.46
81 | TATGAAACGATATATGTGCACATGAGGGAATATAGA [GTGCAC_site9611] | 10.5 ± 0.24
82 | TTAAATGTTATATATTGTACATATAATATATGTATT [XGTACX_site1492] | 10.8 ± 0.5
83 | TCCTTGTTTGGTTTTTTTTTTTCTTCTTTTTTTTTT [CACACA_negctrl_site1355] | 10.1
84 | TTATGTTATATATACACACACAAAAGAAAAAAAAAA [CACACA_site2987] | 10.2 ± 0.31
85 | AGGTTAAAAATAAATACACACATTTGATGTCTGTAT [CACACA_site6596] | 10 ± 0.11
86 | ATATAACATATTAATAATATATTTATAATATGTTTA [GTGCAC_negctrl_site168] | 9.45 ± 0.15
87 | TTTTCTATTTAATTGGTGCACTGATATATACACATA [GTGCAC_site9533] | 10.4 ± 0.4
88 | TTTTGAGAATATATGGGTACAAATAAATAAAAATAT [XGTACX_site1933] | 11.2 ± 0.7
